# Measured values taken from the supplement of paper PMC8728848.
# The list shows a part of the results.
# Tests used:
# Experiment in all cases: glycan array binding signal (z-score within array); higher = stronger binding
# Conditions in all cases: glycan notation: IUPAC condensed, linker removed
# [1] = biological target: Fuc(a1-2)Gal
# Summary of the method: (§1)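 Negative Z-scores can be read as non-binding. The Z-score is calculated within each array and then averaged across arrays of one protein sequence at different concentrations or buffers and across linkers. Arrays, 3228 in all, were curated from the Consortium for Functional Glycomics database and kept only where the protein sequence was available.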
# [2] = biological target: Fuc(a1-2)Gal(b1-3)GalNAc
# Summary of the method: as §1
# [3] = biological target: Fuc(a1-2)Gal(b1-3)GalNAc(a1-3)[Fuc(a1-2)]Gal(b1-4)Glc
# Summary of the method: as §1
# [4] = biological target: Fuc(a1-2)Gal(b1-3)GalNAc(a1-3)[Fuc(a1-2)]Gal(b1-4)GlcNAc
# Summary of the method: as §1
# [5] = biological target: Fuc(a1-2)Gal(b1-3)GalNAc(b1-3)Gal
# Summary of the method: as §1
# [6] = biological target: Fuc(a1-2)Gal(b1-3)GalNAc(b1-3)Gal(a1-4)Gal(b1-4)Glc
# Summary of the method: as §1
# [7] = biological target: Fuc(a1-2)Gal(b1-3)GalNAc(b1-4)[Neu5Ac(a2-3)]Gal(b1-4)Glc
# Summary of the method: as §1
# [8] = biological target: Fuc(a1-2)Gal(b1-3)GlcNAc
# Summary of the method: as §1
# [9] = biological target: Fuc(a1-2)Gal(b1-3)GlcNAc(b1-2)Man(a1-3)[Fuc(a1-2)Gal(b1-3)GlcNAc(b1-2)Man(a1-6)]Man(b1-4)GlcNAc(b1-4)GlcNAc
# Summary of the method: as §1
# [10] = biological target: Fuc(a1-2)Gal(b1-3)GlcNAc(b1-2)Man(a1-3)[Fuc(a1-2)Gal(b1-3)GlcNAc(b1-2)Man(a1-6)]Man(b1-4)GlcNAc(b1-4)[Fuc(a1-6)]GlcNAc
# Summary of the method: as §1
# [11] = biological target: Fuc(a1-2)Gal(b1-3)GlcNAc(b1-3)Gal(b1-4)Glc
# Summary of the method: as §1
# [12] = biological target: Fuc(a1-2)Gal(b1-3)GlcNAc(b1-3)GalNAc
# Summary of the method: as §1
# [13] = biological target: Fuc(a1-2)Gal(b1-3)GlcNAc(b1-3)[Fuc(a1-2)Gal(b1-3)GlcNAc(b1-6)]GalNAc
# Summary of the method: as §1
# [14] = biological target: Fuc(a1-2)Gal(b1-3)GlcNAc(b1-3)[Gal(b1-4)GlcNAc(b1-6)]Gal(b1-4)Glc
# Summary of the method: as §1
# [15] = biological target: Fuc(a1-2)Gal(b1-3)GlcNAc(b1-3)[Neu5Ac(a2-6)Gal(b1-4)GlcNAc(b1-6)]Gal(b1-4)Glc
# Summary of the method: as §1
# [16] = biological target: Fuc(a1-2)Gal(b1-3)GlcNAc6S
# Summary of the method: as §1
# [17] = biological target: Fuc(a1-2)Gal(b1-3)[Fuc(a1-4)]GlcNAc
# Summary of the method: as §1
# [18] = biological target: Fuc(a1-2)Gal(b1-3)[Fuc(a1-4)]GlcNAc(b1-2)Man(a1-3)[Fuc(a1-2)Gal(b1-3)[Fuc(a1-4)]GlcNAc(b1-2)Man(a1-3)]Man(b1-4)GlcNAc(b1-4)GlcNAc
# Summary of the method: as §1
# [19] = biological target: Fuc(a1-2)Gal(b1-3)[Fuc(a1-4)]GlcNAc(b1-2)Man(a1-3)[Fuc(a1-2)Gal(b1-3)[Fuc(a1-4)]GlcNAc(b1-2)Man(a1-6)]Man(b1-4)GlcNAc(b1-4)[Fuc(a1-6)]GlcNAc(b1-4)[Fuc(a1-6)]GlcNAc
# Summary of the method: as §1
# [20] = biological target: Fuc(a1-2)Gal(b1-3)[Fuc(a1-4)]GlcNAc(b1-3)[Fuc(a1-3)[Gal(b1-4)]GlcNAc(b1-6)]Gal(b1-4)Glc
# Summary of the method: as §1
# [21] = biological target: Fuc(a1-2)Gal(b1-3)[Fuc(a1-4)]GlcNAc(b1-3)[Gal(b1-4)GlcNAc(b1-6)]Gal(b1-4)Glc
# Summary of the method: as §1
# [22] = biological target: Fuc(a1-2)Gal(b1-4)Fuc(a1-3)]GlcNAc(b1-2)Man(a1-3)[Fuc(a1-2)Gal(b1-4)[Fuc(a1-3)]GlcNAc(b1-2)Man(a1-6)]Man(b1-4)GlcNAc(b1-4)GlcNAc
# Summary of the method: as §1
# [23] = biological target: Fuc(a1-2)Gal(b1-4)Glc
# Summary of the method: as §1
# [24] = biological target: Fuc(a1-2)Gal(b1-4)Glc6S
# Summary of the method: as §1
# [25] = biological target: Fuc(a1-2)Gal(b1-4)GlcNAc
# Summary of the method: as §1
# [26] = biological target: Fuc(a1-2)Gal(b1-4)GlcNAc(b1-2)Man
# Summary of the method: as §1
# [27] = biological target: Fuc(a1-2)Gal(b1-4)GlcNAc(b1-2)Man(a1-3)[Fuc(a1-2)Gal(b1-4)GlcNAc(b1-2)Man(a1-6)]Man(b1-4)GlcNAc(b1-4)GlcNAc
# Summary of the method: as §1
# [28] = biological target: Fuc(a1-2)Gal(b1-4)GlcNAc(b1-2)Man(a1-3)[Fuc(a1-2)Gal(b1-4)GlcNAc(b1-2)Man(a1-6)]Man(b1-4)GlcNAc(b1-4)[Fuc(a1-6)]GlcNAc
# Summary of the method: as §1
# [29] = biological target: Fuc(a1-2)Gal(b1-4)GlcNAc(b1-2)[Fuc(a1-2)Gal(b1-4)GlcNAc(b1-4)]Man(a1-3)[Fuc(a1-2)Gal(b1-4)GlcNAc(b1-2)Man(a1-6)]Man(b1-4)GlcNAc(b1-4)GlcNAc
# Summary of the method: as §1
# [30] = biological target: Fuc(a1-2)Gal(b1-4)GlcNAc(b1-3)Gal(b1-4)GlcNAc
# Summary of the method: as §1
binder,measurement,setting,value
PFL (Pseudomonas fluorescens) (protein) MSKYAVANQWGGSSAPWHPGGTWVLGARDNQNVVAIEIKSGDGGKSFTGTMTYAGEGPIGFKAQRTGQNQYNVENQWGGNDAPWHPGGKWVIGGRDNQNVIALSVTSSDGGKNLSGTNTYANEGPIGFRGQIE,glycan array binding signal (z-score),[1],-0.117
same,glycan array binding signal (z-score),[2],-0.112
same,glycan array binding signal (z-score),[3],-0.115
same,glycan array binding signal (z-score),[4],-0.115
same,glycan array binding signal (z-score),[5],-0.114
same,glycan array binding signal (z-score),[6],-0.111
same,glycan array binding signal (z-score),[7],-0.109
same,glycan array binding signal (z-score),[8],-0.112
same,glycan array binding signal (z-score),[9],0.214
same,glycan array binding signal (z-score),[10],-0.108
same,glycan array binding signal (z-score),[11],-0.11
same,glycan array binding signal (z-score),[12],-0.116
same,glycan array binding signal (z-score),[13],0.097
same,glycan array binding signal (z-score),[14],-0.11
same,glycan array binding signal (z-score),[15],-0.108
same,glycan array binding signal (z-score),[16],-0.096
same,glycan array binding signal (z-score),[17],-0.118
same,glycan array binding signal (z-score),[18],-0.044
same,glycan array binding signal (z-score),[19],0.119
same,glycan array binding signal (z-score),[20],-0.113
same,glycan array binding signal (z-score),[21],0.109
same,glycan array binding signal (z-score),[22],-0.066
same,glycan array binding signal (z-score),[23],-0.113
same,glycan array binding signal (z-score),[24],-0.109
same,glycan array binding signal (z-score),[25],-0.119
same,glycan array binding signal (z-score),[26],-0.113
same,glycan array binding signal (z-score),[27],0.051
same,glycan array binding signal (z-score),[28],-0.102
same,glycan array binding signal (z-score),[29],0.16
same,glycan array binding signal (z-score),[30],-0.12
